# Laboratory results taken from the supplement of paper PMC8728848.
# The other results are listed elsewhere or left out.
# B1: Siglec-9 (Homo sapiens), Q9Y336 (protein)
# chain: MLLLLLPLLWGRERAEGQTSKLLTMQSSVTVQEGLCVHVPCSFSYPSHGWIYPGPVVHGYWFREGANTDQDAPVATNNPARAVWEETRDRFHLLGDPHTKNCTLSIRDARRSDAGRYFFKMEKGSIKWNYKHHRLSVNVTALTHRPNILIPGTLESGCPQNLTCSVPWACEQGTPPMISWIGTSVSPLDPSTTRSSVLTLIPQPQDHGTSLTCQVTFPGASVTTNKTVHLNVSYPPQNLTMTVFQGDGTVSTVLGNGSSLSLPEGQSLRLVCAVDAVDSNPPARLSLSWRGLTLCPSQPSNPGVLELPWVHLRDAAEFTCRAQNPLGSQQVYLNVSLQSKATSGVTQGVVGGAGATALVFLSFCVIFVVVRSCRKKSARPAAGVGDTGIEDANAVRGSASQGPLTEPWAEDSPPDQPPPASARSSVGEGELQYASLSFQMVKPWDSRGQEATDTEYSEIKIHR
# How the values were obtained:
# Test in all cases: glycan array binding signal (z-score within array); higher = stronger binding
# Details in all cases: glycan notation: IUPAC condensed, linker removed; mutation: R120K
# [1] = molecular target: Gal(b1-3)GlcNAc(b1-6)GalNAc
# Summary of the method: (§1)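 The binding signal is a Z-score computed within each array and averaged over linkers. Arrays of the same protein sequence at different concentrations or buffers were also averaged together. Data originate from 3228 arrays in the Consortium for Functional Glycomics database, kept only where the protein sequence was available.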
# [2] = molecular target: Gal(b1-3)GlcNAc(b1-6)[Gal(b1-3)]GalNAc
# Summary of the method: as §1
# [3] = molecular target: Gal(b1-3)GlcNAc6S
# Summary of the method: as §1
# [4] = molecular target: Gal(b1-3)[Fuc(a1-4)]GlcNAc
# Summary of the method: as §1
# [5] = molecular target: Gal(b1-3)[Fuc(a1-4)]GlcNAc(b1-2)Man
# Summary of the method: as §1
# [6] = molecular target: Gal(b1-3)[Fuc(a1-4)]GlcNAc(b1-2)Man(a1-3)[Gal(b1-3)[Fuc(a1-4)]GlcNAc(b1-2)Man(a1-6)]Man(b1-4)GlcNAc(b1-4)[Fuc(a1-6)]GlcNAc
# Summary of the method: as §1
# [7] = molecular target: Gal(b1-3)[Fuc(a1-4)]GlcNAc(b1-3)Gal(b1-3)[Fuc(a1-4)]GlcNAc
# Summary of the method: as §1
# [8] = molecular target: Gal(b1-3)[Fuc(a1-4)]GlcNAc(b1-3)Gal(b1-4)[Fuc(a1-3)]GlcNAc
# Summary of the method: as §1
# [9] = molecular target: Gal(b1-3)[Fuc(a1-4)]GlcNAc(b1-6)GalNAc
# Summary of the method: as §1
# [10] = molecular target: Gal(b1-3)[GlcNAc(b1-6)]GalNAc
# Summary of the method: as §1
# [11] = molecular target: Gal(b1-3)[Neu5Ac(a2-6)]GalNAc
# Summary of the method: as §1
# [12] = molecular target: Gal(b1-3)[Neu5Ac(a2-6)]GlcNAc(b1-4)Gal(b1-4)Glc
# Summary of the method: as §1
# [13] = molecular target: Gal(b1-3)[Neu5Ac(b2-6)]GalNAc
# Summary of the method: as §1
# [14] = molecular target: Gal(b1-4)Gal
# Summary of the method: as §1
# [15] = molecular target: Gal(b1-4)GalNAc(a1-3)[Fuc(a1-2)]Gal(b1-4)GlcNAc
# Summary of the method: as §1
# [16] = molecular target: Gal(b1-4)GalNAc(b1-3)[Fuc(a1-2)]Gal(b1-4)GlcNAc
# Summary of the method: as §1
# [17] = molecular target: Gal(b1-4)Glc
# Summary of the method: as §1
# [18] = molecular target: Gal(b1-4)Glc6S
# Summary of the method: as §1
# [19] = molecular target: Gal(b1-4)GlcNAc
# Summary of the method: as §1
# [20] = molecular target: Gal(b1-4)GlcNAc(a1-6)Gal(b1-4)GlcNAc
# Summary of the method: as §1
# [21] = molecular target: Gal(b1-4)GlcNAc(b1-2)Man
# Summary of the method: as §1
# [22] = molecular target: Gal(b1-4)GlcNAc(b1-2)Man(a1-3)Man(b1-4)GlcNAc(b1-4)GlcNAc
# Summary of the method: as §1
# [23] = molecular target: Gal(b1-4)GlcNAc(b1-2)Man(a1-3)[Gal(b1-4)GlcNAc(b1-2)Man(a1-6)]Man(b1-4)GlcNAc(b1-4)GlcNAc
# Summary of the method: as §1
# [24] = molecular target: Gal(b1-4)GlcNAc(b1-2)Man(a1-3)[Gal(b1-4)GlcNAc(b1-2)Man(a1-6)]Man(b1-4)GlcNAc(b1-4)[Fuc(a1-6)]GlcNAc
# Summary of the method: as §1
# [25] = molecular target: Gal(b1-4)GlcNAc(b1-2)Man(a1-3)[Gal(b1-4)GlcNAc(b1-2)Man(a1-6)][Gal(b1-4)GlcNAc(b1-4)]Man(b1-4)GlcNAc(b1-4)[Fuc(a1-6)]GlcNAc
# Summary of the method: as §1
# [26] = molecular target: Gal(b1-4)GlcNAc(b1-2)Man(a1-3)[Gal(b1-4)GlcNAc(b1-2)Man(a1-6)][GlcNAc(b1-4)]Man(b1-4)GlcNAc(b1-4)[Fuc(a1-6)]GlcNAc
# Summary of the method: as §1
# [27] = molecular target: Gal(b1-4)GlcNAc(b1-2)Man(a1-3)[GlcNAc(b1-2)Man(a1-6)]Man(b1-4)GlcNAc(b1-4)GlcNAc
# Summary of the method: as §1
# [28] = molecular target: Gal(b1-4)GlcNAc(b1-2)Man(a1-3)[GlcNAc(b1-4)][Gal(b1-4)GlcNAc(b1-2)Man(a1-6)]Man(b1-4)GlcNAc(b1-4)GlcNAc
# Summary of the method: as §1
# [29] = molecular target: Gal(b1-4)GlcNAc(b1-2)Man(a1-3)[Man(a1-6)]Man(b1-4)GlcNAc(b1-4)GlcNAc
# Summary of the method: as §1
# [30] = molecular target: Gal(b1-4)GlcNAc(b1-2)Man(a1-6)Man(b1-4)GlcNAc(b1-4)GlcNAc
# Summary of the method: as §1
# [31] = molecular target: Gal(b1-4)GlcNAc(b1-2)Man(a1-6)[GlcNAc(b1-2)Man(a1-3)]Man(b1-4)GlcNAc(b1-4)GlcNAc
# Summary of the method: as §1
# [32] = molecular target: Gal(b1-4)GlcNAc(b1-2)Man(a1-6)[Man(a1-3)]Man(b1-4)GlcNAc(b1-4)GlcNAc
# Summary of the method: as §1
# [33] = molecular target: Gal(b1-4)GlcNAc(b1-2)[Gal(b1-4)GlcNAc(b1-4)]Man(a1-3)[Gal(b1-4)GlcNAc(b1-2)Man(a1-6)]Man(b1-4)GlcNAc(b1-4)GlcNAc
# Summary of the method: as §1
# [34] = molecular target: Gal(b1-4)GlcNAc(b1-2)[Gal(b1-4)GlcNAc(b1-4)]Man(a1-3)[Gal(b1-4)GlcNAc(b1-2)[Gal(b1-4)GlcNAc(b1-6)]Man(a1-6)]Man(b1-4)GlcNAc(b1-4)GlcNAc
# Summary of the method: as §1
# [35] = molecular target: Gal(b1-4)GlcNAc(b1-2)[Gal(b1-4)GlcNAc(b1-4)]Man(a1-3)[GlcNAc(b1-4)][Gal(b1-4)GlcNAc(b1-2)Man(a1-6)]Man(b1-4)GlcNAc(b1-4)GlcNAc
# Summary of the method: as §1
# [36] = molecular target: Gal(b1-4)GlcNAc(b1-2)[Gal(b1-4)GlcNAc(b1-4)]Man(a1-3)[GlcNAc(b1-4)][Gal(b1-4)GlcNAc(b1-2)[Gal(b1-4)GlcNAc(b1-6)]Man(a1-6)]Man(b1-4)GlcNAc(b1-4)GlcNAc
# Summary of the method: as §1
# [37] = molecular target: Gal(b1-4)GlcNAc(b1-2)[Gal(b1-4)GlcNAc(b1-6)]Man(a1-6)[Gal(b1-4)GlcNAc(b1-2)Man(a1-3)]Man(b1-4)GlcNAc(b1-4)GlcNAc
# Summary of the method: as §1
binder,measurement,setting,value
B1,glycan array binding signal (z-score),[1],-0.275
same,glycan array binding signal (z-score),[2],-0.035
same,glycan array binding signal (z-score),[3],-0.251
same,glycan array binding signal (z-score),[4],-0.34
same,glycan array binding signal (z-score),[5],1.24
same,glycan array binding signal (z-score),[6],0.813
same,glycan array binding signal (z-score),[7],-0.372
same,glycan array binding signal (z-score),[8],-0.46
same,glycan array binding signal (z-score),[9],0.243
same,glycan array binding signal (z-score),[10],-0.458
same,glycan array binding signal (z-score),[11],-0.13
same,glycan array binding signal (z-score),[12],0.069
same,glycan array binding signal (z-score),[13],-0.221
same,glycan array binding signal (z-score),[14],1.95
same,glycan array binding signal (z-score),[15],-0.311
same,glycan array binding signal (z-score),[16],-0.268
same,glycan array binding signal (z-score),[17],-0.292
same,glycan array binding signal (z-score),[18],0.05
same,glycan array binding signal (z-score),[19],-0.39
same,glycan array binding signal (z-score),[20],-0.474
same,glycan array binding signal (z-score),[21],0.289
same,glycan array binding signal (z-score),[22],-0.148
same,glycan array binding signal (z-score),[23],-0.076
same,glycan array binding signal (z-score),[24],-0.105
same,glycan array binding signal (z-score),[25],-0.263
same,glycan array binding signal (z-score),[26],-0.628
same,glycan array binding signal (z-score),[27],-0.682
same,glycan array binding signal (z-score),[28],-0.087
same,glycan array binding signal (z-score),[29],0.057
same,glycan array binding signal (z-score),[30],-0.062
same,glycan array binding signal (z-score),[31],-0.317
same,glycan array binding signal (z-score),[32],0.025
same,glycan array binding signal (z-score),[33],-0.619
same,glycan array binding signal (z-score),[34],0.179
same,glycan array binding signal (z-score),[35],-0.275
same,glycan array binding signal (z-score),[36],0.036
same,glycan array binding signal (z-score),[37],-0.258
